The values that follow come from PMC7857480 (The Journal of Biological Chemistry, 2020).

Assay [1] concerns the target T1, R. pickettii NIS synthetase (Ralstonia pickettii, UniProt A0ABM9IQT6).
T1 construct: gene R38712_03424; full-length ORF (655 residues), N-terminal His tag from pET28b-TEV, codon-optimised, expressed in E. coli
As to the kind of experiment: in vitro siderophore biosynthesis, CAS detection and LC-MS of rhizoferrin (m/z […]). The class given is biochemical. Conditions: 10 mM putrescine; 3 mM Na-citrate, 2.25 mM ATP, 15 mM MgCl2, 50 mM HEPES pH 7.4, RT 2 h.

Assay [2] has as its target T1, R. pickettii NIS synthetase. As to the kind of experiment: in vitro siderophore biosynthesis, CAS detection and LC-MS of homorhizoferrin (m/z […]). It counts as biochemical. To be noted: 10 mM cadaverine; 3 mM Na-citrate, 2.25 mM ATP, 15 mM MgCl2, 50 mM HEPES pH 7.4, RT 2 h.

With `NCCCCN` [putrescine], the “in vitro siderophore biosynthesis, CAS detection and LC-MS of rhizoferrin (m/z 4)” value in assay [1] is “Putrescine and cadaverine produced a strong CAS reaction”. As for `NCCCCCN` [cadaverine], the “in vitro siderophore biosynthesis, CAS detection and LC-MS of homorhizoferrin (m)” value in assay [2] is “Putrescine and cadaverine produced a strong CAS reaction”.
